# From PubChem BioAssay AID2147 (National Center for Advancing Translational Sciences (NCATS), 2009)
# Out of some 230,000 compounds screened, about 3,600 (1.6%) were called active. Inconclusive results, whose numbers are uncertain, are shown with a selection of clear calls. Calls come from the whole dose curve; as a rule, active = well fitted inhibition curve with a large enough effect (not every such curve was filed as active); inconclusive = small, poorly fitted or top-dose-only effect, or another doubt; inactive = no such curve, though single readings can be large or run the other way. Potencies beside an inconclusive call are fits to weak or partial responses and may not hold up.
# Biological target: Lysine-specific demethylase 4E (Homo sapiens) (UniProt B2RXH2)
# Experiment: qHTS Assay for Inhibitors of Human Jumonji Domain Containing 2E (JMJD2E)
# Conditions: JMJD2E catalytic domain, FDH-coupled NADH fluorescence (FDH is formaldehyde dehydrogenase); series mostly up to 57.1 µM
# Note: nearly all actives have a fitted effect of over 50% in size.
# Potency is the fitted concentration of half-maximal effect; tags give direction and shape of the fitted curve.
# UniProt B2RXH2, sequence (B2RXH2 whole entry, looked up, the tested form may be a part): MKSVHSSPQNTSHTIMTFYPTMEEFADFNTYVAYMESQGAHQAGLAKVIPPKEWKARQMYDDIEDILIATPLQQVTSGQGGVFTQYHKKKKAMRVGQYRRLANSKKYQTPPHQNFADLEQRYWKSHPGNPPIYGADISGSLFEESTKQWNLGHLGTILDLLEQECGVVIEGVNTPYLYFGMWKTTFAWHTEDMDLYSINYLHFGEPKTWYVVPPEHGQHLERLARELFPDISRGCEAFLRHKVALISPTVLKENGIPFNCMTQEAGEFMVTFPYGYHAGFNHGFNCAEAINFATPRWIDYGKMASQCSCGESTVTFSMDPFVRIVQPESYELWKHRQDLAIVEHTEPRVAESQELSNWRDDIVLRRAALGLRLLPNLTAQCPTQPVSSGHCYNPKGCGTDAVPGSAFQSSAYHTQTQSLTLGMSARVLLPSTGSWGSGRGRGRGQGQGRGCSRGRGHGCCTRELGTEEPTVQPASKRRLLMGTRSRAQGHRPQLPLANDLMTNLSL
row,Compound,Potency
1,O=C(NNS(=O)(=O)c1ccc(Br)cc1)C1CCCCC1,inactive
2,COC(=O)c1ccc(S(=O)(=O)N(Cc2cc3cc4c(cc3[nH]c2=O)OCO4)C2CCCCC2)cc1,"inconclusive: 22.4 µM [inhibitor, single point]"
3,CC(=O)NCC(=O)OCC(=O)c1ccc2ccccc2c1,"inconclusive: 31.6 µM [inhibitor, partial curve]"
4,CN(C)CCCN1C(=O)c2oc3ccc(F)cc3c(=O)c2C1c1cccnc1 (stereo not given),"inconclusive: 31.6 µM [inhibitor, partial curve]"
5,CC(C)OC(=O)c1cc(NC(=O)C2C3CCC(O3)C2C(=O)O)cc(C(=O)OC(C)C)c1 (stereo not given),"inconclusive: 28.2 µM [inhibitor, single point]"
6,CC(Nc1nc(-c2ccccc2O)nc2ccccc12)c1ccccc1 (stereo not given),inactive
7,CCOC(=O)C1CCN(C(=O)Cn2cc(C(=O)OC)c3ccccc32)CC1,inactive
8,COc1ccc(Nc2nc(N3CCCC3)c3ccccc3n2)cc1,inactive
9,Cc1cc(Cl)ccc1OCCCC(=O)NO,"inconclusive: 39.8 µM [inhibitor, single point]"
10,c1ccc(Oc2nc3ccccc3n3cccc23)cc1,"inconclusive: 39.8 µM [inhibitor, single point]"
11,C=CCNc1ncnc2c1[nH]c1ccccc12,"inconclusive: 31.6 µM [inhibitor, partial curve]"
12,COC(=O)Nc1c(-c2ccccc2)nc2ccc(C)cn12,"inconclusive: 28.2 µM [inhibitor, partial curve]"
13,CC1=CC(=O)C(C(C)C)=C/C1=N\OC(=O)c1cccc2nc(C)oc12,"inconclusive: 20 µM [inhibitor, single point]"
14,Cc1cccc(C)c1NC(=O)COC(=O)c1c2c(nc3ccccc13)/C(=C\c1ccc3c(c1)OCO3)CCC2,"inconclusive: 28.2 µM [inhibitor, partial curve]"
15,COc1nccnc1NS(=O)(=O)c1ccc(N=Cc2c(C)[nH]n(-c3ccc(Cl)cc3)c2=O)cc1,inactive
16,COc1ccc2cc3cc(C(=O)NCc4cccs4)oc3nc2c1,"inconclusive: 12.6 µM [inhibitor, partial curve]"
17,CCc1nnc(NC(=O)c2ccc(S(=O)(=O)N3CCc4ccccc4C3)cc2)s1,inactive
18,CCOc1ccccc1N1CCN(CC(O)COc2ccc3c(C)cc(=O)oc3c2)CC1 (stereo not given),"inconclusive: 35.5 µM [inhibitor, partial curve]"
19,Cc1c(C(=O)O)c(O)cc2c1C(=O)c1c(O)c([C@H]3O[C@H](CO)[C@@H](O)[C@H](O)[C@H]3O)c(O)c(O)c1C2=O,active: 7.94 µM
20,COc1ccc(COc2cc(-c3cccc(OC)c3)nc3ccc(N)cc23)cc1,"inconclusive: 0.282 µM [inhibitor, single point]"
21,CCOc1cc(C(=O)CCC(=O)OCC(=O)N2c3ccccc3NC(=O)C2(C)C)ccc1O,inactive
22,NS(=O)(=O)c1ccc(NC(=O)c2cc(-c3cccs3)nc3ccccc23)cc1,"inconclusive: 31.6 µM [inhibitor, partial curve]"
23,CCOC(=O)c1nn(-c2ccccc2C)c2nc(-c3ccc(Cl)cc3)c(C#N)c(=O)n12,"inconclusive: 31.6 µM [inhibitor, partial curve]"
24,C=CCOC(=O)C1=C(C)Nc2ncnn2C1c1cc(Br)ccc1F (stereo not given),"inconclusive: 31.6 µM [inhibitor, single point]"

row,Compound,Potency
1,O=C(N/N=C/c1ccc2nccnc2c1)c1ccncc1,"inconclusive: 28.2 µM [inhibitor, single point]"
2,COc1ccc2cc(C#N)c(N3CCN(C(=O)c4ccccc4C)CC3)nc2c1,"inconclusive: 28.2 µM [inhibitor, partial curve]"
3,COC(=O)c1cccc(NC(=O)CN2CCN(c3ccc(OC)cc3)CC2)c1,inactive
4,Cc1cccc(Nc2ncnc3c2cnn3C)c1,"inconclusive: 0.0079 µM [inhibitor, full curve, poor fit]"
5,CC(C)c1ccc(-c2c(C#N)c(N)nc(SCC(=O)N3CCCCC3)c2C#N)cc1,"inconclusive: 3.16 µM [inhibitor, full curve]"
6,CCCn1c(-c2ccc[nH]c2=O)nc2cc(C)c(C)cc21,"inconclusive: 31.6 µM [inhibitor, partial curve]"
7,CCC(=O)N(Cc1cc2cc(OC)ccc2[nH]c1=O)c1cc(C)ccc1C,"inconclusive: 31.6 µM [inhibitor, partial curve]"
8,C[C@H]1[C@H](C)CC[C@]2(C(=O)O)CC[C@]3(C)C(=CCC4[C@@]5(C)CC[C@H](O)C(C)(C)[C@@H]5CC[C@]43C)[C@H]12 (stereo not given in full),inactive
9,c1ccc(-n2cc(CN3CCC(N4CCOCC4)CC3)c(-c3ccc4c(c3)OCO4)n2)cc1,"inconclusive: 35.5 µM [inhibitor, partial curve]"
10,Nc1ccc(C(=O)OCc2ccncc2)cc1[N+](=O)[O-],inactive
11,O=[N+]([O-])c1cccnc1N1CCN(c2ccc(F)cc2)CC1,inactive
12,CC(=O)N1CCN(c2ccccc2NC(=O)Cc2ccc(Cl)cc2)CC1,"inconclusive: 39.8 µM [inhibitor, single point]"
13,Cc1nn(-c2ccccc2)c(Cl)c1C(=O)NCC(=O)O,inactive
14,CCN(CC)S(=O)(=O)c1cc(F)ccc1OC,"inconclusive: 39.8 µM [inhibitor, single point]"
15,Cc1c(Cc2ccccc2)c(=O)oc2cc(OC(=O)c3ccccc3)ccc12,"inconclusive: 35.5 µM [inhibitor, single point]"
16,Fc1ccc(C2N(c3ccccc3)C(=S)N3CCCN23)cc1 (stereo not given),inactive
17,Cc1ccccc1C1c2[nH]c3ccccc3c2CCN1CCCn1cccn1 (stereo not given),"inconclusive: 28.2 µM [inhibitor, partial curve]"
18,COc1ccc(OC)c(C2=C/C(=C/c3ccccn3)C(=O)O2)c1,active: 25.1 µM
19,CC(C)c1ccc(C2NC(=S)NC3=C2C(=O)CCC3)cc1 (stereo not given),inactive
20,CCN(CC)CCn1c(-c2ccccc2)nc2c(NC3CCCCC3)nc(C)nc21,"inconclusive: 28.2 µM [inhibitor, partial curve]"
21,O=C(O)C1CCCN1C(=O)Nc1ccc(Cl)cc1 (stereo not given),inactive
22,O=C(O)c1ccccc1/C=N/N1CCN(C2c3ccccc3-c3ccccc32)CC1,"inconclusive: 39.8 µM [inhibitor, single point]"
23,CC(=O)OCCCn1c(C)[n+](C)c2cc(Cl)c(Cl)cc21,"inconclusive: 12.6 µM [inhibitor, partial curve, poor fit]"
24,CCn1c(O)c(C=NCc2ccccc2)sc1=S,inactive

row,Compound,Potency
1,COc1cccc(Nc2nc(-c3cccs3)nc3ccccc23)c1,"inconclusive: 35.5 µM [inhibitor, partial curve]"
2,O=C(Nc1nnc(-c2ccccc2)o1)NC1CCCCC1,"inconclusive: 14.1 µM [inhibitor, partial curve]"
3,Cc1cccc(N(CC(=O)N2CCN(c3ccccc3F)CC2)S(C)(=O)=O)c1,inactive
4,COc1ccccc1NC(=O)Cn1c2ccccc2c2nc3n(c(=O)c21)CCS3,"inconclusive: 28.2 µM [inhibitor, single point]"
5,Cc1ccc(O)c(NC2=C(Cl)C(=O)N(Cc3ccccc3)C2=O)c1,active: 22.4 µM
6,COc1ccc(OC)c(/C=N/N=C2\SCC(=O)N2Cc2ccco2)c1,"inconclusive: 25.1 µM [inhibitor, single point]"
7,O=C(COC(=O)c1cc[n+]([O-])cc1)Nc1ccc([N+](=O)[O-])cc1,inactive
8,O=c1c(-c2ccccc2)coc2c(CN3CCCC3)c(O)ccc12,"inconclusive: 31.6 µM [inhibitor, partial curve]"
9,CCCNC(=O)CCCCn1c(=S)[nH]c2c([nH]c3ccc(OC)cc32)c1=O,"inconclusive: 17.8 µM [inhibitor, partial curve]"
10,Cc1cccc(-n2ncc3c(N4CCc5ccccc54)ncnc32)c1,"inconclusive: 39.8 µM [inhibitor, single point]"
11,COC(=O)CC1C(=O)NCCN1C(=S)Nc1ccccc1 (stereo not given),"inconclusive: 39.8 µM [inhibitor, single point]"
12,CCn1c2c(c3ccc(OC)cc31)CCCC2=O,"inconclusive: 25.1 µM [inhibitor, partial curve]"
13,N#Cc1nc(-c2ccc(OCc3ccccc3)cc2)oc1NCc1cccnc1,"inconclusive: 28.2 µM [inhibitor, single point]"
14,C/C(O)=c1/cnc2nc3ccccc3n2c1=O,"inconclusive: 28.2 µM [inhibitor, partial curve]"
15,CSc1nccc(-c2sc(SC)c(C#N)c2-c2ccccc2)n1,"inconclusive: 31.6 µM [inhibitor, partial curve]"
16,Cc1ccc(NS(=O)(=O)c2ccccc2)c2c1CC(C)(C)O2,inactive
17,N#Cc1cc(-c2ccccc2)[nH]c1-c1nccc2ccccc12,"inconclusive: 31.6 µM [inhibitor, partial curve]"
18,CCCCCCCc1cc2c(cn1)=C(OC)C(C)(OC(C)=O)C(=O)C=2Cl (stereo not given),inactive
19,CCN(CC(=O)NC1CCS(=O)(=O)C1)C(=O)/C=C/c1cccs1 (stereo not given),inactive
20,COC(=O)c1cc(-c2ccccc2)c2c(=O)n(C)c(=O)n(C)c2n1,"inconclusive: 3.16 µM [inhibitor, full curve]"
21,C=CCOc1ccc(CNc2nccs2)cc1OCC,"inconclusive: 1.78 µM [inhibitor, partial curve]"
22,Cc1nn2c(NCCCN3CCOCC3)c3c(nc2c1-c1ccccc1)CCC3,"inconclusive: 35.5 µM [inhibitor, single point]"
